The campaign covered roughly 48,000 compounds. About 550 (1.1%) were called active. Roughly 4% stayed inconclusive and do not appear here. Rule as the data show it: active = potency below about 15 µM; inconclusive = mostly about 16 µM to 33 µM; inactive = weaker than that. The list shows a part of the results.
molecular target: Lysosomal acid glucosylceramidase (Homo sapiens) (UniProt P04062); test: Glucocerebrosidase; settings: purified enzyme, resorufin glucoside fluorescence (screen aimed at inhibitors), 20 min; series mostly up to 77 µM;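 also: the screen sought inhibitors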
Chain of UniProt P04062 (P04062 whole entry, looked up): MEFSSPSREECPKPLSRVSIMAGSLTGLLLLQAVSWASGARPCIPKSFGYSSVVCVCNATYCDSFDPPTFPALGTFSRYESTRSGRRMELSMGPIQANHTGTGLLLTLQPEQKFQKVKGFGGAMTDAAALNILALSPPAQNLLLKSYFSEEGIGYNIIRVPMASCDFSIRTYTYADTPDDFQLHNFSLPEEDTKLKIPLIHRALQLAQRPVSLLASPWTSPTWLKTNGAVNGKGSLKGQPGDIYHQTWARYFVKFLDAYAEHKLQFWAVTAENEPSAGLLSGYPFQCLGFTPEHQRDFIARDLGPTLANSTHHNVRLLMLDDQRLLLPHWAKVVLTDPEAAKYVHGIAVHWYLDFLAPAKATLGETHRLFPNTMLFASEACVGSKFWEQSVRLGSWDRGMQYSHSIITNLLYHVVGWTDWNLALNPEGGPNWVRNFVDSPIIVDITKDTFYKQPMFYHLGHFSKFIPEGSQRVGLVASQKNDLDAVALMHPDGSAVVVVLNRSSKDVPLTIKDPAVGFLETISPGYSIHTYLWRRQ
Text: NCGC Assay Overview: Beta-glucocerebrosidase catalyzes the hydrolysis of beta-glucocerebroside to glucose and ceramide. The inherited deficiency of beta-glucocerebrosidase results in Gaucher disease, which is characterized by a wide variety of symptoms including hepatosplenomegaly, anemia, thrombocytopenia, bony lesions and bone marrow infiltration with characteristic storage cells, known as Gaucher cells. There are also forms of the disorder affecting the central nervous system. Patients with the same genotypes can manifest with diverse clinical presentations and it is believed that improper folding and trafficking of beta-glucocerbrosidase may contribute to the phenotypes observed. Low molecular weight molecules, acting as chaperones, may potentially restore trafficking of misfolded beta-glucocerebrosidase from the endoplasmic reticulum to the lysosomes, thereby enhancing functional lysosomal beta-glucocerebrosidase activity. Using normal beta-glucocerebrosidase, an assay was developed to screen for small molecule inhibitors that could potentially act as molecular chaperones on the mutant forms [developed with NIH investigator Dr. Ellen Sidransky's laboratory]. Two pro-fluorescent substrates were chosen for two screens against a small molecule library. One beta-glucocerebrosidase assay used Resorufin beta-D-Glucopyranoside (Marker Gene Technology Inc.), generating a red fluorescent product. The second assay used Fluorescein di-beta-D-Glucopyranoside, generating a blue fluorescent product. […] The IC50 values of Conduritol B Epoxide, a known glucocerebrosidase inhibitor, were determined to be 87.5 uM and 117 uM, respectively. The use of two difference pro-fluorescent substrates in the screens helped to eliminate false positives. All compounds were screened in a titration series resulting in AC50s (e.g., IC50s or EC50s).
NCGC Assay Protocol Summary: Both enzyme and substrate were diluted in buffer composed of 50mM citric acid/KH2PO4, 10mM sodium taurocholate and 0.01% tween-20 at pH 5.9. The final concentration of the enzyme was 0.2 nM in both assays. The compound library was titrated in 7 to 15 concentrations for the primary screens with a final concentration ranging from 0.6 nM to 50 uM. This particular assay protocol is for the "red" substrate, and it was performed in 1536-well plate format as follows: Red fluorescence substrate assay: 2 uL enzyme 23 nL compound 1 uL substrate (final concentration of 30 uM) Incubate at room temperature (RT) for 20 minutes Read the plate in Viewlux plate reader (Ex=548(7) and Em=600(10)).
Potency is read from the fitted curve at half-maximal effect.

Potency, inactive:
Cc1ccccc1-c1nc(CN2CCC(C(=O)NCC3CCCO3)CC2)c(C)o1 (centres undefined) > 76.9 µM
O=C(Oc1cccc2cccnc12)c1cccs1 > 76.9 µM
CCn1c(SCC(=O)NCc2ccco2)nc2c1c(=O)n(C)c(=O)n2C > 76.9 µM
O=S(=O)(c1ccc2c(c1)OCCO2)N1CCC(c2nc3ccc(Cl)cc3[nH]2)CC1
CC1CN(Cc2ccc(C#N)cc2Cl)CC(C)O1 (centres undefined) > 76.9 µM
c1ccc(-c2nc3ccccc3nc2-c2ccccn2)nc1 > 76.9 µM
O=C1CCCC2=C1C(c1ccsc1)CC(=O)N2c1ccccc1 (centres undefined) > 76.9 µM
COc1ccc(CNC(=O)CN(CC2CCCO2)C(=O)CNS(=O)(=O)c2ccc(F)cc2)cc1 (centres undefined) > 76.9 µM
COc1ccccc1CCC(=O)Nc1nc2ccccc2[nH]1 > 76.9 µM
COCCCn1cnc2c(c1=O)c1nc3ccccc3nc1n2-c1ccc(C)cc1 > 76.9 µM
COCCN1C(=O)C(O)=C(C(C)=O)C1c1ccc(F)cc1 (centres undefined) > 76.9 µM
O=C(O)c1ccccc1C(=O)NCc1cccnc1 > 76.9 µM
Cc1cccn2c(N)c(-c3ccccc3)nc12 > 76.9 µM
O=C1c2ccccc2C(O)N1Cc1ccccc1 (centres undefined) > 76.9 µM
O=C(Nc1ccc2c(c1)OCCO2)C1CCCN(S(=O)(=O)Cc2ccccc2)C1 (centres undefined) > 76.9 µM
O=C1c2ccccc2C(=O)N1Cc1ccc2c(c1)OCO2 > 76.9 µM
CN(C)CC1(c2ccccc2)CCCC1 > 76.9 µM
COc1ccccc1Cc1noc(COc2cccc(C)c2C)n1 > 76.9 µM
CCOc1cccc2cc(C(=O)NCc3cccnc3)c(=O)oc12 > 76.9 µM
O=C1c2cccc3c(N4CCCCC4)ccc(c23)C(=O)N1c1ccccn1 > 76.9 µM
CCCN(CCO)Cc1cccc(Br)c1 > 76.9 µM
O=C(CCCC(=O)N(CC(=O)NC1CCCC1)Cc1ccc(F)cc1)Nc1ccccn1 > 76.9 µM
CCOC(=O)N1CCN(Cc2ccccc2F)CC1 > 76.9 µM
CS(=O)(=O)N(CC(=O)O)c1cc(Cl)cc(Cl)c1 > 76.9 µM
Cc1nc2sc(C)c(C)c2c(=O)[nH]1 > 76.9 µM
Cc1cc(NC(=O)CSc2nc3ccsc3c(=O)n2CCCCC(=O)O)no1 > 76.9 µM
O=c1ccc2cc(S(=O)(=O)Nc3ccc(F)cc3)ccc2o1 > 76.9 µM
CCOc1cc(C2c3c(n[nH]c3C)C(=O)N2c2ccc(C)cc2)ccc1O (centres undefined) > 76.9 µM
Cc1ccc(N2CC(C(=O)NCc3cccnc3)CC2=O)cc1 (centres undefined) > 76.9 µM
CCOC(=O)C1=C(CN2CCN(c3ccc(F)cc3)CC2)NC(=O)NC1c1cccs1 (centres undefined) > 76.9 µM
Cn1c(=O)c2c(nc(CN3CCN(Cc4ccccc4)CC3)n2CCN2CCOCC2)n(C)c1=O > 76.9 µM
COc1ccc(N(CC(=O)NCc2cccc(OC)c2)S(=O)(=O)c2c(C)noc2C)cc1 > 76.9 µM
COc1cccc(OCCNC(=O)c2cccc(OC)c2)c1 > 76.9 µM
CC(C)c1nc(N2CCOCC2)c(C#N)c2c1CCCC2 > 76.9 µM
COc1cc(C2C(C(=O)N3CCOCC3)=C(C)NC3=C2C(=O)CCC3)ccc1OC(C)=O (centres undefined) > 76.9 µM
CN1CC(=O)NC1=NC(=O)C12CC3CC(CC(C3)C1)C2 > 76.9 µM
CCCCc1nnc(NC(=O)CSc2nc(=O)cc(N)n2-c2ccccc2)s1 > 76.9 µM
CCC(C)Nc1nc2c(c(=O)n(C)c(=O)n2C)n1Cc1cccc(C)c1 (centres undefined) > 76.9 µM
c1ccc(C2CC(c3cccs3)n3nnnc3N2)cc1 (centres undefined) > 76.9 µM
Cc1cc(C(=O)OCC(=O)c2c(N)n(C)c(=O)n(C)c2=O)c(C)o1 > 76.9 µM
O=C(CSc1ncnc2ccccc12)NCc1ccco1 > 76.9 µM
O=C(c1ccccc1)N1CCCC(C(=O)N2CCCCCC2)C1 (centres undefined) > 76.9 µM
O=C(Nc1ccccc1)NC1CCN(Cc2nnnn2C2CCCCC2)CC1 > 76.9 µM
Cc1ccc2c(c1)C1OCCC1C1N2C(=O)C2C(C(=O)O)C3C=CC21O3 (centres undefined) > 76.9 µM
COc1cccc(C2=NOC(C(=O)NCc3ccc(F)cc3)C2)c1 (centres undefined) > 76.9 µM
O=C(c1c(F)cccc1F)N1CCC(O)(c2cccnc2)CC1 > 76.9 µM
CCS(=O)(=O)N1CCC(C(=O)NC2CCCCCCC2)CC1 > 76.9 µM
Cc1ccc(NC(=O)CC2C(=O)NC3CCCCC3N2C(=O)c2ccc(F)cc2)cc1C (centres undefined) > 76.9 µM
COc1ccc(C(=O)Nc2cccc(C(=O)N3CCCC3)c2)cc1 > 76.9 µM
CC(c1ccco1)N(C(=O)Nc1ccc(Cl)cc1)c1ccccn1 (centres undefined) > 76.9 µM
CN(C)S(=O)(=O)c1cccc2nsnc12 > 76.9 µM
CCc1nnc(NS(=O)(=O)c2ccc(NS(=O)(=O)c3ccccc3)cc2)s1 > 76.9 µM
CCOC(=O)NCc1ccc(Cl)c(Cl)c1 > 76.9 µM
Cc1ccc(NC(=O)C2CC=CCC2C(=O)N2CCCCC2)cc1 (centres undefined) > 76.9 µM
CC1=Nn2c(nnc2-c2cc(C)[nH]n2)SC1 > 76.9 µM
Cc1cn(COC/C=C/c2ccccc2)c(=O)[nH]c1=O > 76.9 µM
CN1CCn2c1nc(N1CCOCC1)nc2=O > 76.9 µM
NC1=C(c2ccc(F)cc2)C(=O)CS1 > 76.9 µM
O=C(c1cc(-c2ccccn2)nc2c(Cl)cccc12)N1CCN(C(=O)C2CCCO2)CC1 (centres undefined) > 76.9 µM
COC(=O)CN(c1c(C)cccc1C)S(C)(=O)=O > 76.9 µM
Cn1c(C(=O)N2CCCC(C(=O)NCCCc3ccccc3)C2)cc2sccc21 (centres undefined)
CC(=O)Nc1ccc(N(C(=O)c2cnccn2)C(C(=O)NC2CCCCC2)c2ccc(O)cc2)cc1 (centres undefined) > 76.9 µM
COC(=O)NCc1cccc(CNC(=O)OC)c1 > 76.9 µM
CCN(CC)S(=O)(=O)c1cc(C(=O)O)ccc1Cl > 76.9 µM
COc1ccc(S(=O)(=O)N(C)c2ccc(C(=O)N3CCOCC3)cc2)cc1 > 76.9 µM
Nc1nncn1C(=O)CCCN1C(=O)c2ccccc2C1=O > 76.9 µM
Cc1cc(C)nc(Sc2c(C)n[nH]c2C)n1 > 76.9 µM
Cc1ccc2c(c1)N(CC(=O)Nc1ccc3c(c1)OCCO3)C(=O)CO2 > 76.9 µM
O=C(Nc1cccnc1)c1noc2c1CCCCC2 > 76.9 µM
O=C(NCC(=O)N(Cc1cccs1)C(C(=O)NC1CCCC1)c1ccncc1)c1ccco1 (centres undefined) > 76.9 µM
COc1ccc(CNC(=O)CSc2nc3nc(C)cc(C)n3n2)cc1 > 76.9 µM
Cn1cc(CN2CCc3ccccc3C2)c2ccccc21 > 76.9 µM
CCCN(CCC)CCCNS(=O)(=O)c1ccc2c(c1)oc(=O)n2C > 76.9 µM
CCN(C(=O)c1cn(CC)c(=O)c2cc(OC)c(OC)cc12)c1ccccc1C > 76.9 µM
O=C(O)C1CCN(S(=O)(=O)c2cccnc2)CC1 > 76.9 µM
CCCN(CCC)C(=O)Cn1ccc(=N)c2ccccc21 > 76.9 µM
CCn1c(SCC(=O)N2CCCc3ccccc32)nnc1-c1ccco1 > 76.9 µM
COc1ccc(CNc2cc(C)nc3ncnn23)c(OC)c1 > 76.9 µM
Cc1csc(NC(=O)C2C3C=CC(O3)C2C(=O)O)n1 (centres undefined) > 76.9 µM
CCOC(=O)c1c(C)[nH]c(C(=O)Cn2nnc(-c3ccccc3)n2)c1C > 76.9 µM
COC(=O)c1ccc(NC(=O)CN2C(=O)CSC2=O)cc1 > 76.9 µM
Cc1nc2ccccn2c1P(=O)(N1CCCCC1)N1CCCCC1 > 76.9 µM
Cc1ccc(Nc2nc(Oc3ccc(OCc4ccccc4)nn3)nc(N3CCOCC3)n2)cc1 > 76.9 µM
CCc1ccc(-c2nnn(Cc3nn[nH]n3)n2)cc1 > 76.9 µM
CCC(C)(C)n1nnnc1C(c1ccccc1OC)N1CCSCC1 (centres undefined)
O=C(Nc1ccc(Br)cn1)c1ccc2nccnc2c1 > 76.9 µM
CC(C)(C)NC(=O)C(c1ccc(OCC(N)=O)cc1)N(C(=O)c1cccnc1)C1CC1 (centres undefined) > 76.9 µM
CCC(C)NC(=O)c1c(C)cc(=O)oc1C (centres undefined) > 76.9 µM
CCOCCNC(=O)c1ccccc1C(=O)NCCOCC > 76.9 µM
Cc1cccc(NC(=O)N(Cc2nc3ccccc3c(=O)[nH]2)C2CCCC2)c1 > 76.9 µM
COc1ccccc1N1CCN(CC(=O)Nc2cccc(F)c2)CC1 > 76.9 µM
O=C(O)CN1CCN(Cc2ccc(F)cc2Cl)C1=O > 76.9 µM
CCOC(=O)c1sc(SCC(=O)Nc2ccc(N(C)C)cc2)nc1N > 76.9 µM
[N-]=[N+]=CC(=O)C(Cc1ccccc1)N1C(=O)c2ccccc2C1=O (centres undefined) > 76.9 µM

From PubChem BioAssay AID360 (National Center for Advancing Translational Sciences (NCATS), 2006)
